# Data published in PubChem BioAssay AID1768 (National Center for Advancing Translational Sciences (NCATS), 2009).
# Values joined by “and” are separate entries in the source; they are usually repeats but may differ in a detail not shown here. Identical values can stand only once. Hit rate of the full screen: of about 270,000 compounds, about 620 (0.23%) were called active. The shares of active, inactive and inconclusive entries below differ from those in the screen. Calls follow the shape of the dose curve; as a rule, active = well fitted inhibition curve with a large enough effect in the polarisation, with a control signal flat (not every such curve was filed as active); inconclusive = small, poorly fitted or top-dose-only effect, or effect the other way, or a change in a side signal; inactive = no such curve, though single readings can be large or run the other way; the % refers to the polarisation. Potencies of inconclusive entries are doubtful fits and often do not repeat. A note “side channel” means that the fit belongs to a control or component signal, not to the main read-out.
# Target: Menin (Homo sapiens) (UniProt O00255)
# Chain of UniProt O00255 (O00255 whole entry, looked up): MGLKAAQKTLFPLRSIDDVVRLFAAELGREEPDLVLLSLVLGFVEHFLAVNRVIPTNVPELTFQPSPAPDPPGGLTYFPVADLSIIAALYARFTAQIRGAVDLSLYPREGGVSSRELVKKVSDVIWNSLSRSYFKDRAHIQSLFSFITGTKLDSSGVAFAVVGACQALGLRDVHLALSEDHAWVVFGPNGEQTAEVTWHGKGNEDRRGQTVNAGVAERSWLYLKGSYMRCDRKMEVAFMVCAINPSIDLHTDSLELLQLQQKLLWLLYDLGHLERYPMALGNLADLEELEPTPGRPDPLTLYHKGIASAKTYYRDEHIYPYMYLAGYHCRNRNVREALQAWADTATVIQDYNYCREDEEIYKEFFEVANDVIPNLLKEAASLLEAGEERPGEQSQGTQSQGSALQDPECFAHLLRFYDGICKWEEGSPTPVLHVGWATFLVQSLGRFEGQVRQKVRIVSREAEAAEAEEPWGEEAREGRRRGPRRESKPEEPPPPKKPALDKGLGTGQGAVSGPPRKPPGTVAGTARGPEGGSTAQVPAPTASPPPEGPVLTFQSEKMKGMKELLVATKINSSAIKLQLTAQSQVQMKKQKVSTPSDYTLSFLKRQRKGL
# Test: qHTS Assay for Inhibitors Targeting the Menin-MLL Interaction in MLL Related Leukemias: Competition With Texas Red Labeled MLL-derived Mutant Peptide
# Conditions: fluorescence polarization; series mostly up to 61.6 µM
# From the text: qHTS Assay for Inhibitors Targeting the Menin-MLL Interaction in MLL Related Leukemias NIH Chemical Genomics Center [NCGC] NIH Molecular Libraries Probe Centers Network [MLPCN] MLPCN Grant: MH084875-01A1 Assay Submitter (PI): Jolanta Grembecka, Tomasz Cierpicki, University of Virginia Translocations of the MLL (Mixed Lineage Leukemia) gene are frequently found in human leukemias affecting both children and adults. Fusion of MLL to one of more than 60 genes results in generation of oncogenic proteins upregulating Hox genes, which are vital to blood cell development. Patients harboring fusion of the MLL gene suffer from aggressive leukemias and respond poorly to available therapies. All of the oncogenic fusion proteins have a preserved N-terminal fragment of MLL that has been identified to interact with menin. It has been recently discovered that association with menin is critical to the leukemogenic activity of the MLL fusion oncoproteins. Selective targeting of the menin-MLL interaction could provide an attractive therapeutic approach to develop novel drugs for MLL-related leukemias. Small molecules blocking the menin-MLL interaction should reverse the oncogenic potential of MLL fusion proteins. We have developed and optimized a fluorescence polarization-based assay for the identification of Menin-MLL inhibitors. The assay was run employing two different MLL-derived peptides. The present assay uses a 12 amino acid peptide labeled with fluorescein at its N-terminus. This peptide consists of the menin high affinity binding motif from MLL and is potently bound by menin. Another peptide with a mutated sequence, labeled with Texas Red, was used in parallel as a less stringent screen for inhibitors.
# The Menin protein, the MLL-wild type (w.t.) derived peptide (N-terminal 12 amino acids), the MLL-derived peptide labeled with Texas Red and the MLL-w.t. peptide labeled with Fluorescein were kindly supplied by laboratory of Dr. Jolanta Grembecka, University of Virginia. All protein and peptide solutions were stored in single use aliquots at -80C. The Eu3+ Cyrptate-conjugated mouse monoclonal antibody anti-6 Histidine (Eu3+-AB) and the Streptavidin-XL665 conjugate (XL665) were purchased from Cisbio International (Bedford, MA). All antibody and XL665 conjugate solution stocks were stored in single use aliquots at -20C. The Buffer components for all assays were purchased from Sigma-Aldrich (St. Louis, MO) and Invitrogen (Carlsbad, CA). FP Assay Reagents: 1. FP reaction buffer: 50 mM Tris-HCl pH 7.5, 50 mM NaCl, 1mM DTT. Before use, 0.05% BSA is added. 2. Menin protein, MLL-w.t. labeled with fluorescein, MLL-mutant peptide labeled with texas red. Stored in singe use aliquots at -80C. 3. MLL-w.t. unlabeled peptide as positive control: 10 uM final in FP buffer. FP Assay Procedure: 1. Prepare Menin at 200 nM, MLL-w.t.-fluorescein at 25 nM, and MLL-mutant-texas red at 50 nM mixture in FP buffer. 2. Prepare Menin at 200 nM, MLL-w.t.-fluorescein at 25 nM, MLL-mutant-texas red at 50 nM, and 10 uM MLL-w.t. unlabeled mixture in FP buffer. 3. Prepare MLL-w.t.-fluorescein at 25 nM and MLL-mutant-texas red at 50 nM mixture in FP buffer. 3. Dispense 4 ul per well of reagent in step 1 in columns 2, 4 - 48 in a black 1536 well plate, dispense 4 ul per well of reagents from steps 2 and 3 in columns 1 and 3 respectively. Incubate plate at ambient for 15 minutes. 4. Transfer 23 nl per well of compound to plate and incubate at ambient for 1 hr. 5. Read fluorescence polarization for each label using the PerkinElmer Envision. Envision protocol for fluorescein: FITC FP Dual Enh Mirror, Excitation filter 480, Emission filter (1) P-pol 535, Emission filter (2) S-pol 535 Envision protocol for texas red: FP Dual Enh Mirror, Excitation filter 555, Emission filter (1) P-pol 632, Emission filter (2) S-pol 632
# Potency is read from the fitted curve at half-maximal effect; tags tell the direction and shape of the fitted curve or compound fluorescence and quenching.
row,SMILES,Potency
1,CC1CCc2c(sc3nc(CN4CCOCC4)nc(N4CCc5ccccc5C4)c23)C1 (stereo not drawn),"inconclusive: 11.2 µM [fluorescent, side channel, partial curve]"
2,COc1ccc(Nc2nc(NN)nc(Nc3ccc(OC)cc3)n2)cc1,"inconclusive: 14.1 µM [quencher, side channel, partial curve]"
3,O=C1C2C=CC=CC2=NC(=S)N1CCN1CCC(=C(c2ccc(F)cc2)c2ccc(F)cc2)CC1 (stereo not drawn),"inconclusive: 31.6 µM [inhibitor, single point]"
4,O=C(O)c1ccc2c(c1Nc1ccccc1)C(=O)c1ccccc1C2=O,"inconclusive: 25.1 µM [quencher, side channel, single point]"
5,COC(=O)c1ccc(CN2CCC(CO)(CCOc3ccccc3)CC2)cc1,inactive
6,Cc1c2c(c(O)c3c(O)cccc13)C(=O)O[C@H]2C1C(N(C)C)C(O)=C(C(N)=O)C(=O)[C@H]1O (stereo partly drawn),"inconclusive: 12.6 µM [quencher, side channel, partial curve]"
7,Cc1ccc(/C=C2\SC(=S)N(CCC(=O)NNC(=O)c3ccc(O)cc3)C2=O)cc1,"inconclusive: 10 µM [fluorescent, side channel, partial curve]"
8,COc1cc(C=O)ccc1OS(=O)(=O)c1ccccc1[N+](=O)[O-],"inconclusive: 35.5 µM [quencher, side channel, single point]"
9,COc1ccc(NC(=S)N(CCc2c(C)[nH]c3ccccc23)Cc2ccco2)cc1,"inconclusive: 12.6 µM [quencher, side channel, partial curve]"
10,COc1ccc(-c2nc3c(c(=O)[nH]c(=O)n3Cc3ccccc3)n2CCO)cc1,"inconclusive: 28.2 µM [fluorescent, side channel, single point]"
11,CC1(C)S[C@@H]2[C@H](NC(=O)C(N)c3ccccc3)C(=O)N2[C@H]1C(=O)O (stereo partly drawn),inactive
12,CC(NC(=S)Nc1ccc(S(=O)(=O)N2CCOCC2)cc1)C1CC2CCC1C2 (stereo not drawn),"inconclusive: 15.8 µM [quencher, side channel, partial curve]"
13,O=C(NCCOC(=O)C1COc2ccccc2O1)C1COc2ccccc2O1 (stereo not drawn),inactive
14,O=C(Nc1nc2ccc(Cl)cc2s1)c1ccc(N2CCCCC2)c([N+](=O)[O-])c1,"inconclusive: 2.51 µM [quencher, side channel, full curve, poor fit]"
15,O=c1[nH]c2ccc(S(=O)(=O)N3CCN(c4ccccc4)CC3)cc2[nH]c1=O,"inconclusive: 4.47 µM [inhibitor, full curve]"
16,Cc1cc2nc(-c3ccc[nH]c3=O)n(Cc3cccc(F)c3)c2cc1C,"inconclusive: 11.2 µM [inhibitor, partial curve]"
17,COc1ccc(NC2(c3ccc(Cl)cc3)C(=O)c3ccccc3C2=O)cc1,"inconclusive: 14.1 µM [quencher, side channel, partial curve]"
18,Cn1c(C(C#N)C2=C(Cl)C(=O)N(c3ccccc3)C2=O)nc2ccccc21 (stereo not drawn),inactive
19,COc1cc(OC)c(C(=O)OCC(=O)c2cc(C)n(CC3CCCO3)c2C)cc1OC (stereo not drawn),"inconclusive: 3.16 µM [fluorescent, side channel, single point]"
20,Cc1cc(NS(=O)(=O)c2ccc(NC(=O)C(C)Oc3ccc(Cl)cc3)cc2)no1 (stereo not drawn),"inconclusive: 0.708 µM [quencher, side channel, full curve, poor fit]"

row,SMILES,Potency
1,CC1CC1C(=O)OCC(=O)Nc1ccc(N=Nc2ccccc2)cc1 (stereo not drawn),"inconclusive: 28.2 µM [quencher, side channel, single point]"
2,C#CCn1c(=NC(=O)c2cc(-c3cccs3)nc3ccccc23)sc2cc(S(N)(=O)=O)ccc21,"inconclusive: 2.82 µM [inhibitor, full curve, poor fit]"
3,CCOC(=O)c1oc2nc(C(C)C)c3c(c2c1N)CC(C)(C)OC3,inactive
4,Cc1cccc(C(=O)CC(=O)c2cc(Cl)ccc2O)c1,"inconclusive: 20 µM [quencher, side channel, partial curve]"
5,COc1ccc(NC(=O)/C=C/c2ccc3c(c2)OCO3)cc1,"inconclusive: 28.2 µM [quencher, side channel, partial curve]"
6,CC(=O)Nc1sc(C)c(C)c1C(=O)OCCOc1ccccc1,"inconclusive: 12.6 µM [fluorescent, side channel, partial curve]"
7,O=C1NC(=O)C(Cc2ccc(OCCN3COc4ccccc4C3=O)cc2)S1 (stereo not drawn),inactive
8,CCn1c(/C=C/c2ccc(O)c(O)c2)nc2ccccc2c1=O,"inconclusive: 14.1 µM [quencher, side channel, partial curve]"
9,O=C(c1ccc(F)cc1)c1cc2ccc(O)cc2oc1=O,inactive
10,CN(C)c1ccc(-n2cc3c(=O)n(C)c(=O)n(C)c3c2)cc1,inactive
11,O=C1OC2(c3ccc(O)cc3Oc3cc(O)ccc32)c2ccccc21,"inconclusive: 20 µM [fluorescent, side channel, partial curve] and inconclusive: 22.4 µM [fluorescent, side channel, single point]"
12,CN1C(=O)/C(=C/c2cn(CC(=O)NCc3ccco3)c3ccccc23)NC1=S,"inconclusive: 35.5 µM [quencher, side channel, single point]"
13,CCN(C(=O)c1cc2cc(OC)ccc2oc1=O)c1cccc(C)c1,"inconclusive: 10 µM [inhibitor, partial curve, poor fit]"
14,C/C(=N\Nc1ccc([N+](=O)[O-])cc1)c1ccco1,"inconclusive: 17.8 µM [quencher, side channel, single point]"
15,Clc1ccccc1OCCN1CCC(Cc2ccccc2)CC1,"inconclusive: 17.8 µM [fluorescent, side channel, partial curve]"
16,CCCCNS(=O)(=O)c1ccc2nc(SCC(=O)Nc3ccccc3)[nH]c2c1,inactive
17,COc1ccc2[nH]cc(CCNc3ccnc(-c4ccc5c(c4)OCO5)n3)c2c1,"inconclusive: 15.8 µM [quencher, side channel, partial curve]"
18,CC(=O)N(Cc1cc2ccccc2[nH]c1=O)c1ccc(C)cc1,"inconclusive: 3.16 µM [inhibitor, full curve, poor fit]"
19,O=C(Nc1nc2c(s1)CCCC2)c1cccnc1,"inconclusive: 31.6 µM [inhibitor, partial curve]"
20,CCCN1C(=O)/C(=C\C=C2\N(CC)c3ccccc3C2(C)C)SC1=S,"inconclusive: 2.82 µM [fluorescent, side channel, partial curve, poor fit]"

row,SMILES,Potency
1,C[n+]1ccc(/C=N/Nc2nc(Cl)c(C#N)c(Cl)c2Cl)cc1,"inconclusive: 6.31 µM [quencher, side channel, partial curve]"
2,CN(Cc1ccccc1F)Cc1cc(=O)oc2cc(O)c(Cl)cc12,"inconclusive: 22.4 µM [quencher, side channel, partial curve]"
3,O=C(CCN1C(=O)/C(=C/c2ccccc2F)SC1=S)Nc1ccccn1,"inconclusive: 35.5 µM [quencher, side channel, single point]"
4,Cc1cc(NCCCN2CCOCC2)n2nc(C)c(-c3ccccc3)c2n1,inactive
5,Cc1c(C(=O)Nc2ccncc2)sc2nc(-c3ccccc3)cn12,inactive
6,CN(C)c1ccc(-c2nc(NCc3cccnc3)c3ccccc3n2)cc1,"inconclusive: 20 µM [quencher, side channel, partial curve]"
7,O=C(/C=C/c1ccc([N+](=O)[O-])cc1)NCCOc1ccc(F)cc1,"inconclusive: 28.2 µM [quencher, side channel, single point]"
8,Cc1cc(C(F)(F)F)c(C#N)c(SCC(=O)Nc2nc3ccccc3s2)n1,"inconclusive: 8.91 µM [quencher, side channel, single point]"
9,Nc1ccccc1S(=O)(=O)Nc1cccc2cccnc12,"inconclusive: 28.2 µM [quencher, side channel, single point] and inconclusive: 31.6 µM [quencher, side channel, partial curve]"
10,COc1cc(/C=N/Nc2nc(C)cc(=O)[nH]2)ccc1O,"inconclusive: 39.8 µM [quencher, side channel, single point]"
11,CCc1ccc(CNc2ccc3c(c2)ncn3CC)cc1,"inconclusive: 25.1 µM [inhibitor, single point]"
12,O=C(Nn1c(C2CCCCC2)nc2ccccc2c1=O)c1ccc(Cl)c([N+](=O)[O-])c1,"inconclusive: 22.4 µM [quencher, side channel, single point]"
13,CCOC(=O)c1[nH]c2ccc(OC)cc2c1NC(=S)N1CCN(c2ccccc2)CC1,"inconclusive: 12.6 µM [quencher, side channel, partial curve]"
14,c1ccc(-c2nnc(-c3ccco3)o2)cc1,inactive
15,Cc1nc2cc(C(=O)O)ccc2s1,inactive
16,COc1cc(C(=O)NNc2nc3cc4c(cc3s2)OCO4)cc(OC)c1OC,inactive
17,COc1ccc(C(=O)Nc2ccc(S(=O)(=O)Nc3nccc(C)n3)cc2)cc1,"inconclusive: 35.5 µM [quencher, side channel, single point]"
18,CCOc1ccc(-c2cn(S(=O)(=O)c3cccc4nsnc34)nc2N)cc1,"inconclusive: 31.6 µM [quencher, side channel, partial curve]"
